Measured values taken from publication PMC4336329 (PLoS ONE, 2015).
The campaign covered roughly 310,000 compounds. About 14,000 (4.5%) showed an effect of 50% or more. Effects have a minus sign here. Some of the results follow.

Molecular target: human ether-à-go-go-related gene (hERG) potassium channel (human, UniProt Q12809)
Experiment: primary screen, population patch clamp on CHO cells stably expressing hERG
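Note: peak tail current of the secondary pulse compared with the same well before compound.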

Chain of human ether-à-go-go-related gene (hERG) potassium channel (Q12809 whole entry, looked up): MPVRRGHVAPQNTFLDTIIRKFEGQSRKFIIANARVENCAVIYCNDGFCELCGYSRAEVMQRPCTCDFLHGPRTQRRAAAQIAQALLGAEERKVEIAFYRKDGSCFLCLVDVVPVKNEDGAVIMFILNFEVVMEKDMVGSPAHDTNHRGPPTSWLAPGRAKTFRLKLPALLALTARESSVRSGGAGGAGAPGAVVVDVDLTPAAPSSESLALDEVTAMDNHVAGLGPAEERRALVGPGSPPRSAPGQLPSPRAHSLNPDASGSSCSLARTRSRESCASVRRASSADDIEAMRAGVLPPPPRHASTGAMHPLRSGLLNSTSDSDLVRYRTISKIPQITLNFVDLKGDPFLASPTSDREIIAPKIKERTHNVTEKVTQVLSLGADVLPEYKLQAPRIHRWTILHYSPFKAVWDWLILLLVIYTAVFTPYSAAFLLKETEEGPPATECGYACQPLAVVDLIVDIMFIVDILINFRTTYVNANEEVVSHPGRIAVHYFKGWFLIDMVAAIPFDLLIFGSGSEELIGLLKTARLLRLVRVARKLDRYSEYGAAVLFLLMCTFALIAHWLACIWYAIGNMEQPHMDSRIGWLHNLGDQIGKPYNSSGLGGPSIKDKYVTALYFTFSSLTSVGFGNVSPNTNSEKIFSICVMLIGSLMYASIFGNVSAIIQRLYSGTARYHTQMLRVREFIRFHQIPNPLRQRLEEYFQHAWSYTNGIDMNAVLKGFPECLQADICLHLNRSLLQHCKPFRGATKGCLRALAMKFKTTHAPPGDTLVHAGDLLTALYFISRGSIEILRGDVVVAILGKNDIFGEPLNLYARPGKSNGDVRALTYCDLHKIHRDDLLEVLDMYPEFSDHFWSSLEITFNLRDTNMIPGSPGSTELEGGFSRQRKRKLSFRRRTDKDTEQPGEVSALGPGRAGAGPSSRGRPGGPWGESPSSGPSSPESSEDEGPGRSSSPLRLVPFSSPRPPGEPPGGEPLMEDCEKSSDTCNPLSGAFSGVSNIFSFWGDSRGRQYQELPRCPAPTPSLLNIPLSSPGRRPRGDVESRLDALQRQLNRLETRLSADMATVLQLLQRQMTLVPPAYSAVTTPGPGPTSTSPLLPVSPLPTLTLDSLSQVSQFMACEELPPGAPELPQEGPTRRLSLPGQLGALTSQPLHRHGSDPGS

Row | Structure (SMILES) | hERG current change (%, negative = inhibition) at 10uM [%]
1 | CCOC(=O)CN(C(=O)Cn1nnc(-c2ccc(OC)cc2)n1)C(C(=O)NC1CCCC1)c1ccc(F)cc1 (centres unmarked) | -0.514
2 | CCOC(=O)c1c2n(c3c(NCc4ccccc4)ncnc13)CCCC2 | -76.3
3 | COc1ccc(CN2CCN(C(=O)c3cccc(OC)c3OC)CC2)cc1OC.O=C(O)C(=O)O | 5.63
4 | CCOC(=O)C1CCCN(CC(=O)Nc2c(C(=O)OC)[nH]c3ccc(C)cc23)C1 (centres unmarked) | -36.1
5 | O=C1CN(C(=O)CSc2nncn2-c2ccccc2)c2ccccc2N1 | 25.4
6 | O=[N+]([O-])O[C@H]1CO[C@H]2[C@@H]1OC[C@H]2O[N+](=O)[O-] | -0.978
7 | Cc1ccc2cc(CNC(C)(C)C)c(=O)[nH]c2c1 | -19
8 | O=C(Nc1cccnc1)c1cccc(S(=O)(=O)N2CCc3ccccc32)c1 | 11
9 | O=C(N/N=C/c1cccc([N+](=O)[O-])c1)c1ccc2nc[nH]c2c1 | 13.5
10 | CCN1C(=O)c2ccccc2Sc2ccc(C(=O)O)cc21 | 10.3
11 | COc1ccc(C(=O)COC(=O)C2CCCN2C(=O)C23CC4CC(CC(C4)C2)C3)cc1 (centres unmarked) | 2.11
12 | O=C(CNc1ccccc1)Nc1ccc(F)cc1 | 3.4
13 | COc1ccc(-n2nc(C(=O)NCC(=O)N3CCC(C(N)=O)CC3)c3ccccc3c2=O)cc1 | 9.36
14 | CC(=O)Nc1ccc(NC(=O)CNC(=O)COc2ccccc2)cc1 | 15.8
15 | COC(=O)C1=C(C)NC(=O)NC1/C=C/c1ccccc1 (centres unmarked) | -13.5
16 | CC(=O)N1CCc2cc(S(=O)(=O)CCC(=O)NCc3ccc4c(c3)OCO4)ccc21 | -3.72
17 | COc1cc(SC)ccc1C(=O)Nc1ccncc1 | -26.2
18 | C#CCNC(=O)C1=C[C@H](C(C)(C)C)C[C@H](OCCCCO)O1 | -0.801
19 | Cc1ccc(CNC(=O)Nc2cccc(C)c2)cc1 | 16.3
20 | COc1cc(C=O)ccc1OCC(=O)Nc1ccc2c(c1)OCO2 | -5.05
21 | O=C(O)Cc1ccc(O)cc1 | 17.1
22 | Cc1cc(C)c(C#N)c(SCc2ccc(C(=O)O)cc2)n1 | -5.29
23 | COc1ccccc1CNC(=O)c1cc(-c2ccccc2C)nn1CC1CC(c2cccnc2)=NO1 (centres unmarked) | -2.89

Row | Structure (SMILES) | hERG current change (%, negative = inhibition) at 10uM [%]
24 | O=C(CSc1nc2[nH]c(=O)cc(O)c2s1)Nc1cc(Cl)cc(Cl)c1 | -4.57
25 | Cc1ccc(C)c(N2CCN(C(=O)c3ccc4nc(-c5ccco5)c(-c5ccco5)nc4c3)CC2)c1 | 21.1
26 | S=C(NCc1ccc2c(c1)OCO2)Nc1ccc(-c2nc3ccccc3[nH]2)cc1 | -0.463
27 | Oc1[nH]c2ccccc2c1N=Nc1ccc(C(F)(F)F)cn1 | 2.64
28 | O=C(Cc1ccccc1F)Nc1nc(-c2ccc(F)c(F)c2)cs1 | 0.418
29 | CCOC(=O)CSc1nc2ccccc2c(=O)n1Cc1ccco1 | -18.1
30 | CN1CCN(c2ncnc3c2cnn3-c2ccc(Cl)cc2)CC1 | -37.7
31 | CCC1CCC(C(=O)NC(C(=O)NCCc2ccc(S(N)(=O)=O)cc2)C(C)C)CC1 (centres unmarked) | 16.6
32 | Cc1ccc(N(C(=O)CCC(=O)Nc2ccccn2)C(C(=O)NC(C)C)c2ccc(F)cc2)cc1 (centres unmarked) | 21.4
33 | COc1ccc(C(=O)NCC(C)C)c(OC)c1 | -4.71
34 | COc1ccc(-c2cc(C#N)nc(NN)n2)cc1 | 2.26
35 | O=C(Nc1nc2ccccc2n1Cc1ccccc1)c1ccco1 | 20.2
36 | CNc1c(NS(=O)(=O)c2ccc(OC)c(Cl)c2)c(=O)oc2ccccc12 | 11.5
37 | COc1ccc2c(c1)CCN=C2Cc1ccc(OC)c(OC)c1.Cl | -26.4
38 | CCCCc1nc(SCC(=O)Nc2cccc(Cl)c2)n[nH]1 | -4.4
39 | CCOC(=O)CCCOC(=O)c1ccc(S(=O)(=O)N(C)C)cc1 | -2.65
40 | CC(=O)Nc1nc(-c2ccc3ccccc3c2)cs1 | 5.97
41 | O=c1[nH]c2ccccc2c2ccccc12 | 20.4
42 | Cc1ccc(NC(=O)COn2nnc3ccc(S(=O)(=O)N(C)C)cc32)cc1F | -17
43 | COc1ccc(CNC(=O)CSc2nc3nc(C)cc(C)n3n2)cc1 | 2.92
44 | O=C(OCC(CO)OC(CO)n1ccc(=O)[nH]c1=O)c1ccccc1 (centres unmarked) | 11.4
45 | O=C(CN1CCN(c2ncc(C(F)(F)F)cc2Cl)CC1)Nc1ccc2c(c1)OCO2 | -37.7
46 | Cc1ccccc1-n1nnnc1SCC(=O)c1c(N)n(C)c(=O)n(C)c1=O | 0.614

Row | Structure (SMILES) | hERG current change (%, negative = inhibition) at 10uM [%]
47 | CC(C)CC(OC(=O)c1nsc(Cl)c1Cl)C(=O)NC1CCCC1 (centres unmarked) | 13.9
48 | Cc1ccc(NC(=O)CCC(=O)NNC(=O)Cc2ccccc2)cc1C | 2.51
49 | Cc1ccc(C)c(S(=O)(=O)Nc2ccccc2C(=O)Nc2ccccc2N2CCOCC2)c1 | 6.67
50 | COc1cc(/C=N\NC(=O)Cn2nnc3ccccc32)cc(OC)c1OC | -18.4
51 | Cc1nnc2c3ccccc3c(Cl)nn12 | -10.9
52 | COc1cccc(Cn2cnc3c(NS(=O)(=O)c4cc(Cl)ccc4Cl)c(C)c(C)cc32)c1 | 9.84
53 | COc1ccccc1CNC(=O)c1ccc(CS(=O)(=O)c2ccccc2C)o1 | -29.6
54 | CC(=O)N1CCN(C(=O)c2cc(-c3ccc(Cl)s3)nc3ccccc23)CC1 | -51.8
55 | CC1=CC2=NC(=O)CC(C)(C(=O)N(CC(=O)NC3CCCC3)c3ccccc3F)N2C=C1 (centres unmarked) | 29.1
56 | Cc1ccc(CSc2nnc(-c3ccco3)o2)cc1 | -0.292
57 | CC(=O)c1cc(C#N)c(SCc2ccccc2)nc1C | 10.8
58 | Cc1ccc(NC(=O)COc2coc(CN3c4ccccc4CC3C)cc2=O)c(C)c1 (centres unmarked) | -14.8
59 | COc1ccc(S(=O)(=O)Nc2cccc(SC)c2)cc1C(=O)N1CCOCC1 | 8.35
60 | COc1c(Cl)cc(C(=O)NN)cc1Cl | 0.95
61 | CCOC(=O)C1CCCN(S(=O)(=O)c2ccc(F)c(C(=O)Nc3ccc(F)c(F)c3)c2)C1 (centres unmarked) | -41.9
62 | COc1ccccc1-n1nnnc1SCC(=O)NC1CCCCC1 | -6.72
63 | Cc1cc(=O)oc2cc(OCC(=O)OCC(=O)Nc3ccccc3C(C)C)ccc12 | 3.47
64 | CCCN1CCN(CCCNC(=O)c2ccc3c(c2)NC(=O)c2ccccc2S3)CC1 | -10.6
65 | COc1ccccc1N1CCN(C(=O)c2ccc3c(Cl)c4c(nc3c2)CCCC4)CC1 | 3.73
66 | CC1=C([N+](=O)[O-])C(c2ccccc2C(F)(F)F)NC(=O)N1C (centres unmarked) | 3.59
67 | CC/C(=N/Nc1ccccc1C)c1cnnc(SC)n1 | 9.7
68 | O=C(C1CCCN(S(=O)(=O)c2cccc3cccnc23)C1)N1CCc2ccccc21 (centres unmarked) | -39.6
69 | COC(=O)Nc1sc2c(c1C(=O)N1CCOCC1)CCC(C)C2 (centres unmarked) | -7.32

Row | Structure (SMILES) | hERG current change (%, negative = inhibition) at 10uM [%]
70 | CCc1ccccc1NC(=S)N(CCCN(C)C)Cc1cc2cc3c(cc2[nH]c1=O)OCO3 | -19.7
71 | CCN(C(=O)CCN1C(=O)c2ccccc2C1=O)C1CCCCC1 | -1.43
72 | COc1cc(=O)n2c(-c3ccccc3)csc2n1 | 7.98
73 | COc1cccc(C(=O)NC(=O)Nc2nc(C)cc(C(F)(F)F)n2)c1 | 12
74 | CC(=O)NC1C(=O)N(Cc2ccccc2)c2ccc(Br)cc21 (centres unmarked) | -7.32
75 | CCOC(=O)/C(=C\c1ccccc1)NC(=O)c1ccccc1 | -1.79
76 | COc1ccccc1-c1nnc(NC(=O)Cc2ccccc2)o1 | 10.8
77 | CCOC(=O)c1ccc(NC(=S)NCc2cccnc2)cc1 | 12.3
78 | Cc1ccc(C(=O)NC(=S)Nc2ccccc2C)cc1 | -0.104
79 | CCCc1cc2c(=O)c(-c3ccc4c(c3)OCCO4)c(C)oc2cc1OS(C)(=O)=O | -18.9
80 | COc1ccc(NC(=O)CN(C)CC(=O)NCc2ccc(C)cc2)cc1 | -21.3
81 | C=CCn1c(SCC(=O)Nc2nc3ccccc3s2)nc(O)c(CC)c1=O | 6.88
82 | NC(=O)C1(N2CCCCC2)CCN(Cc2ccc(Br)cc2)CC1 | -51
83 | COC(=O)CNC(=O)Cc1c(F)cccc1Cl | 19.1
84 | COc1nc(OC/C(N)=N/O)nc(N2CCOCC2)n1 | -11.6
85 | Cc1cc(Oc2ccccc2)nc(SCC(=O)Nc2ccccc2)n1 | 19.4
86 | CN(c1ccccc1)S(=O)(=O)c1cccc(NC(=O)CSc2ncc(C(F)(F)F)cc2Cl)c1 | 15.9
87 | COC(=O)c1ccc(OCC2NCCc3cc(OC)c(OC)cc32)cc1 (centres unmarked) | 3.63
88 | O=C(CSc1nnc(-c2cccc(F)c2)o1)N1CCCC1 | 8.92
89 | Cc1ccc(C(=O)N/N=C/c2ccc(N3CCOCC3)cc2)c(C)c1 | 26.3
